Results: PubChem BioAssay AID2675 (National Center for Advancing Translational Sciences (NCATS), 2010)
Hit rate of the full screen: of about 280,000 compounds, about 100 (0.036%) were called active. The inconclusive results got no clear call from the source; some entries with a clear call stand among them for comparison. Calls follow the shape of the dose curve; as a rule, active = well fitted inhibition curve with a large enough effect in the signal ratio, with a control signal flat (not every such curve was filed as active); inconclusive = small, poorly fitted or top-dose-only effect, or effect the other way, or a change in a side signal; inactive = no such curve, though single readings can be large or run the other way; the % refers to the signal ratio. A potency beside an inconclusive call is a rough fit, not a confirmed value. A note “side channel” means that the fit belongs to a control or component signal, not to the main read-out.

The compounds below were run against Muscleblind-like protein 1 (Homo sapiens) (UniProt Q9NR56) (assay: qHTS Assay for Inhibitors of MBNL1-poly(CUG) RNA binding). Details: TR-FRET MBNL1-His/biotin-(CUG)12 binding, 665/545 ratio; activity change, negative = inhibition: at 57.5 µM (top of the series).
Chain of UniProt Q9NR56 (Q9NR56 whole entry, looked up): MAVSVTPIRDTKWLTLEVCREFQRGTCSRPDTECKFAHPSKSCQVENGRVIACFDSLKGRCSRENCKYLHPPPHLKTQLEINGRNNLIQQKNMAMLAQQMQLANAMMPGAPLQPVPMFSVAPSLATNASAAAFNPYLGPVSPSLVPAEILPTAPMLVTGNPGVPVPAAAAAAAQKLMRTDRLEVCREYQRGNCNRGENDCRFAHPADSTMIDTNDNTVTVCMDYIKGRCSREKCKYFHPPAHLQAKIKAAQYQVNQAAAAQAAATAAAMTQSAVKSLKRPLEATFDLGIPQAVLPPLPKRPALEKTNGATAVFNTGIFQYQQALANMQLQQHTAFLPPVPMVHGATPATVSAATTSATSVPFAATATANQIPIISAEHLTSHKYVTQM
Outline: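 Compound titration spanned 92 nM–58 uM against the MBNL1-His/biotin-(CUG)12 complex. After 60 min at room temperature with 5 nM streptavidin-XL665 and 0.055 ng/ul terbium anti-His, ratiometric 665/545 nm emission (Ex 340 nm) normalized to controls.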
% is scaled to controls: 0 for no effect and ±100 for the full control effect; potency is read from the fitted curve at half-maximal effect; tags tell the direction and shape of the fitted curve or compound fluorescence and quenching.

Row | Compound | Potency | activity change, negative = inhibition
1 | CCC(NC(=O)c1ccc([N+](=O)[O-])cc1[N+](=O)[O-])c1ccccc1 (stereo unspecified) | inconclusive: 6.31 µM [quencher, side channel, partial curve] | –
2 | Cc1ccc(S(=O)(=O)N2CCN(C3CCC(c4ccccc4)CC3)CC2)cc1 (stereo unspecified) | inconclusive: 6.31 µM [quencher, side channel, single point] | –
3 | Cc1ccc(OCC(=O)c2ccc(Cl)s2)c([N+](=O)[O-])n1 | inconclusive: 20 µM [quencher, side channel, partial curve] | –
4 | Cc1cc(C(=O)Nc2ccccc2C(=O)N2CCCCC2)ccc1[N+](=O)[O-] | inconclusive: 17.8 µM [quencher, side channel, partial curve] | –
5 | O=C(NCC1OCCc2ccccc21)c1ccc(NC(=O)c2ccc(Cl)cc2Cl)cc1 (stereo unspecified) | inconclusive: 0.282 µM [fluorescent, side channel, partial curve] | –
6 | O=C1c2ccccc2C(=O)N1CC(O)Cn1nnc2ccccc21 (stereo unspecified) | inconclusive: 31.6 µM [quencher, side channel, single point] | –
7 | CCOc1cc(/C=N/NC(=O)c2ccc(CSc3nncn3C)cc2)ccc1OCC(=O)N1CCOCC1 | inconclusive: 17.8 µM [quencher, side channel, partial curve] | –
8 | O=C(CCN1C(=O)/C(=C/c2ccc(F)cc2)SC1=S)NCCc1cnc[nH]1 | inconclusive: 12.6 µM [quencher, partial curve] | –
9 | COc1ccc(C(=O)C[n+]2cccc3cc(C)ccc32)cc1 | inconclusive: 12.6 µM [quencher, partial curve] | –
10 | COc1ccc(-c2nn3c(C4CCCCC4)nnc3s2)cc1OC | inactive | –
11 | COc1ccc(/C(O)=C2/C(=O)C(=O)N(c3ncccn3)C2c2ccc(F)cc2)cc1 (stereo unspecified) | inconclusive: 20 µM [quencher, single point] | –
12 | COC(=O)/C=C1/S/C(=N/NC(=O)c2ccccc2OC)NC1=O | inconclusive: 12.6 µM [quencher, side channel, partial curve] | –
13 | O=C(N/N=C/c1ccncc1)c1cccc([N+](=O)[O-])c1 | inconclusive: 8.91 µM [quencher, side channel, partial curve] | –
14 | CC(=O)Nc1ccc2nc(CN3CCN(Cc4ccc(F)cc4)C(CCO)C3)ccc2c1 (stereo unspecified) | inconclusive: 39.8 µM [quencher, side channel, partial curve, poor fit] | –
15 | c1ccc(CNc2nc3ccccc3[nH]2)cc1 | inactive | –
16 | O=C(c1cc2nc(-c3ccccc3)cc(-c3ccccc3)n2n1)N1CCN(C(=O)c2ccco2)CC1 | inconclusive: 12.6 µM [quencher, side channel, partial curve, poor fit] | –
17 | O=C(CSc1nnc2c(n1)[nH]c1ccccc12)Nc1ccc(N2CCOCC2)cc1 | inconclusive: 1 µM [quencher, side channel, full curve, poor fit] | –
18 | CC1=C(C(=O)OCc2ccccc2)C(c2ccc(C(C)(C)C)cc2)NC(=O)N1CCCCCC(=O)O (stereo unspecified) | inconclusive: 126 µM [inhibitor, single point] | –

Row | Compound | Potency | activity change, negative = inhibition
19 | COc1ccccc1NC(=O)c1ccc2c(c1)C(=O)N(c1ccccc1OC)C2=O | inconclusive: 4.47 µM [quencher, side channel, partial curve] | –
20 | O=C(NCCc1cccs1)C1CC(c2ccccc2[N+](=O)[O-])=NO1 (stereo unspecified) | inconclusive: 11.2 µM [quencher, side channel, partial curve] | –
21 | CC(=O)OCCCNc1cc(Sc2ccc(C)cc2)c2nonc2c1[N+](=O)[O-] | inconclusive: 2.51 µM [quencher, side channel, full curve] | –
22 | CCN(CC)CC(=O)Nc1ccc(-c2nc3cc(NC(=O)CN(CC)CC)ccc3o2)cc1 | inactive | –
23 | CCOC(=O)N/N=C/c1c(C)nn(-c2cccc(C(F)(F)F)c2)c1Cl | inactive | –
24 | COc1ccc(OC)c(C2=NS(=O)(=O)N(C)C(C(=O)NCc3cccs3)=C2)c1 | inconclusive: 17.8 µM [quencher, side channel, partial curve] | –
25 | CCN(CC)CCN1C(=O)c2cccc3cc(N)cc(c23)C1=O | inconclusive: 15.8 µM [quencher, side channel, partial curve] | –
26 | Nc1nonc1OCCN1CCN(c2ccc([N+](=O)[O-])c3cccnc23)CC1 | inconclusive: 7.94 µM [quencher, side channel, partial curve] | –
27 | Cc1ccc(CNC(=O)C23CN(Cc4ccccc4)CC2C(c2ccc([N+](=O)[O-])cc2)=NO3)o1 (stereo unspecified) | inconclusive: 14.1 µM [quencher, side channel, partial curve] | –
28 | Cc1cc(/C=C2\NC(=S)N(C)C2=O)ccc1N1CCCC1 | inconclusive: 12.6 µM [quencher, side channel, partial curve] | –
29 | COc1cc(C(=O)Nc2cccc(-c3nncn3C)c2)cc(OC)c1OC | inactive | –
30 | CCOc1ccc(CN2CCN(C(=O)c3ccccc3)CC2)cc1 | inactive | –
31 | O=C1OC2(CCCCC2)CC2=C1C1O[C@](CCCCN3C(=O)c4ccccc4C3=O)(Cc3ccccc31)O2 | – | inactive: -2.95% [at 11.5 µM]
32 | O=C(Nc1ccc(Cc2ccncc2)cc1)c1ccc([N+](=O)[O-])o1 | inconclusive: 11.2 µM [quencher, side channel, partial curve] | –
33 | O=C(COC(=O)/C=C/c1ccc(Br)o1)NCCCN1CCCC1=O | inconclusive: 10 µM [quencher, side channel, partial curve] | –
34 | CCOC(=O)CCCCC(=O)c1[nH]c(=O)[nH]c1CSc1nnc2c3ccccc3n(C(C)C)c2n1 | active: 28.2 µM | –
35 | NC(=O)[C@@H]1CCCCNc2c(F)cc([N+](=O)[O-])cc2C(=O)N[C@@H](CC(=O)O)C(=O)N[C@@H](CCC(=O)O)C(=O)N1 | inconclusive: 7.08 µM [quencher, side channel, partial curve] | –
36 | O=C(CSc1nc(-c2ccccc2)nn1C(=O)c1ccccc1)Nc1cccc([N+](=O)[O-])c1 | inconclusive: 17.8 µM [quencher, side channel, partial curve] | –
